According to publication PMC4336329 (PLoS ONE, 2015):
Among all 310,000 compounds or so, about 14,000 (4.5%) showed an effect of 50% or more. The effect is printed as a negative number. The list shows a part of the results.

target: human ether-à-go-go-related gene (hERG) potassium channel (human, UniProt Q12809); assay: primary screen, population patch clamp on CHO cells stably expressing hERG
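Also: peak tail current of the secondary pulse compared with the same well before compound.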

Chain of human ether-à-go-go-related gene (hERG) potassium channel (Q12809 whole entry, looked up): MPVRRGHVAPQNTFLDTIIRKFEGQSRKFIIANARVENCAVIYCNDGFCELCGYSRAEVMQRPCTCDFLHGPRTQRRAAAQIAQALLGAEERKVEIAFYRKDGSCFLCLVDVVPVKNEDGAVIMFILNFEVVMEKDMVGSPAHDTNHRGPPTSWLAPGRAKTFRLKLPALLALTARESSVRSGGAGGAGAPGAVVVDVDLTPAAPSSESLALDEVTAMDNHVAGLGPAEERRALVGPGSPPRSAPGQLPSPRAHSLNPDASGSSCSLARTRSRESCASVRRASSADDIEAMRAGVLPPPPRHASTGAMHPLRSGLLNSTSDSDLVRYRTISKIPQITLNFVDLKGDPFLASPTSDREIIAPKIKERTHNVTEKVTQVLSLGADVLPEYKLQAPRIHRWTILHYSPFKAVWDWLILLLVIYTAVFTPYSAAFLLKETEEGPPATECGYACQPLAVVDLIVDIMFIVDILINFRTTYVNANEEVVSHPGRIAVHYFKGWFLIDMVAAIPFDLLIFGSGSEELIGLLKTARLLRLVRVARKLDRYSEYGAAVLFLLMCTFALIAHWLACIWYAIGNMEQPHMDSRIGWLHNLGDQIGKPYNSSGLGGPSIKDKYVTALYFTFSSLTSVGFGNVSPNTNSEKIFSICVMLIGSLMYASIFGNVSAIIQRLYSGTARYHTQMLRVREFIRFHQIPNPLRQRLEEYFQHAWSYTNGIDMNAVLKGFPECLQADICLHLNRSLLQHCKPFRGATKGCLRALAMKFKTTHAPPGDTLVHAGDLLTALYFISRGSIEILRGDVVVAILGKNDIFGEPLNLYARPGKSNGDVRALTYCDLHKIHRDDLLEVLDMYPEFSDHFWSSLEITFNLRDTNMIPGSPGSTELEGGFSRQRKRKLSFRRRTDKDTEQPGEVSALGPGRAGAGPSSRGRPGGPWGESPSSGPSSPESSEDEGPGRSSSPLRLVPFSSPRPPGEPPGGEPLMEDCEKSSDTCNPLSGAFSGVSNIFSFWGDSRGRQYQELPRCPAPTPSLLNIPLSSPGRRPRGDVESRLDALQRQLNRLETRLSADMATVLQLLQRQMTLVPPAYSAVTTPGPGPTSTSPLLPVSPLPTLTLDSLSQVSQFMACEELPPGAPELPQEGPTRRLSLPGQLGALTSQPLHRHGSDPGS

Structure (SMILES) | hERG current change (%, negative = inhibition) at 10uM
Cn1c(=O)c2c(nc(CN3CCC(C(N)=O)CC3)n2CCCc2ccccc2)n(C)c1=O | -12.6%
CCC(=O)c1ccccc1OCC(=O)Nc1c(C)cccc1C | -5.87%
CCOc1cc(/C=N/NC(=O)Nc2ccccc2)ccc1O | -14.2%
CCn1c(SCC(=O)c2ccc(O)c(O)c2)nnc1-c1ccccc1 | -13.3%
CCn1cc(CCC(=O)NCCN2CCOCC2)c2ccccc21 | 14.4%
CCOc1cc(C=O)ccc1OCc1cc(=O)n2cc(C)ccc2n1 | 7.13%
NS(=O)(=O)c1ccc(CCNC(=O)COc2ccc3c4c(c(=O)oc3c2)CCC4)cc1 | 9.18%
Cc1cccc(-c2nnc3n2N=C(c2ccccc2)CS3)c1 | 15.2%
O=C(NCc1ccco1)C(c1ccco1)N(CCc1ccccc1)C(=O)Cn1nnc2ccccc21 (stereo not shown) | -4.92%
COc1cccc(/C=C2\SC(=O)N(CCC(=O)NCCCn3ccnc3)C2=O)c1 | -31.4%
CCN(CC)CCOC(=O)c1cccc(OC)c1.Cl | -15.1%
CCOC(=O)[C@H]1[C@H]2COc3cc(OC)ccc3[C@@H]2N2C(=O)c3ccc(C)cc3NC(=O)[C@@]12C | -9.55%
CC(NC(=O)c1ccccc1F)C12CC3CC(CC(C3)C1)C2 (stereo not shown) | -13.5%
CCc1ccc(C(C(=O)NC2CCCCC2)N(C(=O)c2csnn2)C2CC2)cc1 (stereo not shown) | 12.4%
O=C(Cn1cnc2ccccc21)N/N=C/c1ccccn1 | 6.67%
COc1ccc(N2CCN(c3ccc(NC(=O)/C=C\C(=O)O)cc3)CC2)cc1 | 9.65%
Cc1nc(CSc2n[nH]c(=O)n2-c2cccc(F)c2)cs1 | 17.4%
CCCCNC(=O)c1onc(CSc2ccc(C(C)C)cc2)c1C(=O)O | 0.532%
COc1ccc(NC(=O)c2ccccc2[N+](=O)[O-])cc1OC | -1.55%
CCc1ccc(-n2nc3cc(C)c(N)cc3n2)cc1 | 13%
O=C(/C=C/c1ccccc1Cl)c1ccc[nH]1 | 17.1%
COc1c(-c2ccc(O)cc2)oc2cc(O)cc(O)c2c1=O | -12.2%

Structure (SMILES) | hERG current change (%, negative = inhibition) at 10uM
c1ccn2c(SCc3ccc4c(c3)OCCO4)nnc2c1 | -23.9%
COc1cc2cc(NC(C)=O)cc(NCc3ccccc3)c2cc1OC | 10.9%
CCCn1nnc(NC(=O)c2cc(Br)cc(Br)c2OC)n1 | -29%
O=S(NCc1ccco1)C12CC3CC(CC(C3)C1)C2 (stereo not shown) | 11.2%
COc1cccc(CNn2cnnc2)c1OCc1ccc(F)cc1 | 8.12%
C=CCNC(=O)/C(C#N)=C/c1ccc(SC)cc1 | -15.3%
Cc1nc2ccccn2c1C(=O)OCC#N | 20.1%
Cc1cc(S(=O)(=O)N2CCOCC2)ccc1OCC(=O)NCc1ccccn1 | -12.5%
Cc1cc(F)c(F)cc1C(=O)N1CCCC1 | 13.2%
Fc1cccc(Cl)c1Cn1nnc(-c2ccc(N3CCOCC3)cc2)n1 | 8.99%
Cc1ccc(NC(=O)CSCC(=O)N2CCN(C(=O)c3ccco3)CC2)cc1 | -21.6%
CCCC(=O)Nc1nc(C)c(-c2csc(Nc3cc(OC)ccc3OC)n2)s1 | 5.5%
CCCC[C@H](CN(N=O)[C@@H](Cc1ccccc1)CN(C)N=O)N(CCc1ccccc1)N=O.[Na+] | -3.27%
CCCOc1ccc(C(=O)NNC(=S)NC(=O)c2ccccc2[N+](=O)[O-])cc1 | 15.2%
Clc1ccc(-c2nnc(-c3ccco3)nc2N2CCCCC2)cc1 | -37.5%
CCOC(=O)C(C(=O)Nc1ccccc1)C1CCCCC1 (stereo not shown) | -1.53%
COC(=O)C1=C(C)N(Cc2ccccc2)C(=S)N[C@H]1c1ccccc1 | -2.64%
Nc1cc(=O)[nH]c(SCC(=O)Nc2cccc(Cl)c2)n1 | 1.17%
Cc1ccc(S(=O)(=O)N(C)C)cc1NC(=O)COC(=O)c1n[nH]c(=O)c2ccccc12 | -49.8%
CN(C)S(=O)(=O)c1ccc(C(=O)OCC(=O)c2ccc(OC(F)F)cc2OC(F)F)cc1 | -3.97%
Cc1cc(C)n(/N=C/c2ccc(O)cc2)c(=O)c1C#N | 17.1%
O=C(NC1CCC1)C1CCC(=O)N(Cc2cccc(F)c2)C1 (stereo not shown) | -3.14%

Structure (SMILES) | hERG current change (%, negative = inhibition) at 10uM
O=C(COC(=O)CCC(=O)c1ccccc1)Nc1nnc(-c2ccccc2)o1 | 5.91%
Cc1ccc(Cl)cc1NC(=O)COc1ccccc1 | 8.86%
O=C(CN1CCCC1c1cccs1)N1CCN(S(=O)(=O)c2cccc(F)c2)CC1 (stereo not shown) | -19%
COC/C=C/C1=CC2=CC(=O)C(C)(OC(=O)c3cnc4ccccc4n3)C(=O)C2=CN1CCN1CCOCC1 (stereo not shown) | 15%
COc1ccccc1NC(=O)CSc1nnc(C2CCCCC2)n1-c1ccccc1 | -31.3%
CC(C)(C)C(=O)Nc1ccc(C(=O)Nc2cccnc2)cc1 | 10.4%
Cc1cc(Cl)ccc1C(=O)C1CCCN(C(=O)c2cnn(C(C)C)c2)C1 (stereo not shown) | -17.7%
C/C(=N/NC(=O)c1ccc(Br)o1)c1cccc(NC(=O)c2ccc(F)cc2)c1 | -58.9%
CN1CCN(/N=C/c2ccc(OCc3ccccc3)cc2)CC1 | -21.9%
CN(C)N=C1c2cc(S(=O)(=O)N3CCOCC3)ccc2-c2ccc(S(=O)(=O)N3CCOCC3)cc21 | -0.734%
Cc1ccc(S(=O)(=O)N2CCN(C(=O)CCC(=O)N3CCc4ccccc43)CC2)cc1 | -62.2%
COc1ccc(CSCCN)cc1Cl.Cl | 6.78%
Cc1cccc(Oc2ccc(NS(=O)(=O)c3ccc(C)c(C(=O)O)c3)cc2)c1 | 4.58%
COc1ccc(/C=C/C(=O)OCC(=O)Nc2ccc3[nH]c(=O)[nH]c3c2)cc1OC | -5.5%
C/C(=N\NC(=O)c1ccoc1C)c1ccccc1O | -35.1%
COc1ccc2oc(C(=O)OCC(=O)N3CCCC(C)C3)c(C)c2c1 (stereo not shown) | -39.4%
CSc1ccccc1C(=O)Nc1ccc2c(c1)OCO2 | 1.15%
Cc1ncoc1C(=O)N1CCc2c([nH]c3ccccc23)C1c1ccccc1F (stereo not shown) | -21.3%
COc1cc(C(=O)NNC(=O)Nc2ccc([N+](=O)[O-])cc2)cc(OC)c1OC | 5.5%
CN(c1ccccc1)S(=O)(=O)c1cccc(C(=O)NNC(=O)c2ccccc2)c1 | -1.79%
COc1cc(S(=O)(=O)Nc2ccc(C)cc2)ccc1NC(=O)c1ccncc1 | -19.7%
Cc1c(C(=O)O)c(=O)n(-c2ccccc2)n1-c1ccccc1 | -4.59%

Structure (SMILES) | hERG current change (%, negative = inhibition) at 10uM
NC(N)=N/N=C/c1ccc(Cl)c([N+](=O)[O-])c1 | -38.6%
c1ccc(-c2ccc3c(n2)CCCO3)cc1 | -5.08%
CCOC(=O)CSc1nnc(C)n1N | 11.5%
CCC(=O)N1CCc2cc(S(=O)(=O)CCC(=O)NCCc3ccccc3)ccc21 | 5.88%
Cc1noc(/C=C/N(C)C)c1S(=O)(=O)N1CCCC(C(=O)Nc2ccc3c(c2)OCO3)C1 (stereo not shown) | 8.23%
CCO[C@@H]1OC(C(=O)NCc2ccccc2)=C[C@H](C(C)(C)C)[C@H]1CCCO | -10.5%
N#Cc1ccccc1NC(=O)COC(=O)CCc1ccccc1 | -14.9%
Cc1ccc(C)c(N(C(=O)Cn2nnc(-c3cccs3)n2)C(C(=O)NC2CCCC2)c2ccncc2)c1 (stereo not shown) | 7.32%
COc1ccc([C@H]2CC(=O)C=C(c3cccc4c3sc3ccccc34)C2)cc1OC | 10.6%
CP(=O)(Nc1ccccc1)C(Cl)(Cl)Cl (stereo not shown) | 13.8%
COc1c(/C=N/NC(=O)c2ccncc2)c(CCN(C)C(C)=O)cc2c1OCO2 | 11.8%
CC(C)CCOP(=O)(c1ccccc1)c1ccccc1 | -16.8%
O=C1Nc2cc(Cl)ccc2C1(N1CCNCC1)C(F)(F)F (stereo not shown) | -10.6%
COc1ccc(-n2nc3c(c2NC(=O)c2ccc(Br)o2)CS(=O)(=O)C3)cc1 | -16.4%
CCCc1[nH]nc2c1C(c1cccnc1)C(C#N)=C(N)O2 (stereo not shown) | 7.87%
CCOC(=O)C1(CCCc2ccccc2)CCN(C(=O)CCCn2cncn2)CC1 | -44.1%
COc1ccc(-c2cn3cccnc3n2)cc1NC(=O)C1CC1 | -13.1%
Cc1cnc(C(=O)Nc2nnc(C)s2)cn1 | 8.05%
COCC(=O)Nc1cc(OC)cc(OC)c1 | 0.286%
O=[N+]([O-])c1ccc(C(O)CN2CCN(Cc3ccccc3)CC2)cc1 (stereo not shown) | -73.4%
Cc1ccc(N2C(=O)C3C4C=CC(CNC(=S)N5CCN(c6ccccn6)CC5)(O4)C3C2=O)cc1 (stereo not shown) | -5.41%
O=C(NNC(=O)c1ccccc1-c1ccccc1C(=O)O)c1cccc([N+](=O)[O-])c1 | -22.1%
